How the values were obtained:
HMGB1(red) = biological target: T1, HMGB1(red) (Rattus norvegicus, UniProt P63159); assay: SPR binding specificity study, HMGB1(red); conditions: analyte HMGB1(red); 1.5 mM DTT; captured on HSA
T1 construct: purchased HMGBiotech Srl, Milano, Italy
T1 sequence (P63159 1-215): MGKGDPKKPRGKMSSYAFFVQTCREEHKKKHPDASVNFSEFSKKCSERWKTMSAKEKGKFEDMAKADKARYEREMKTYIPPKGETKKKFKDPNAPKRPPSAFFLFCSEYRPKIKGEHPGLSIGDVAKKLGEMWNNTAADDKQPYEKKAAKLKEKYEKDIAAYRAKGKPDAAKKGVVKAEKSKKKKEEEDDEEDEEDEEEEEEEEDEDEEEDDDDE
Protocol: (§1) HSA (Albucult®, Novozyme) was diluted to 10 μg/ml in acetate, pH 4.0, and immobilized onto a CM5 sensor chip using a Biacore 2000 instrument. Immobilization was performed by amine chemistry, using amine coupling kit, according to the manufacturer's instructions. The first surface of each chip was activated and deactivated for use as a reference cell (blank surface) during analyte injections. HBS-EP was used as running buffer, supplemented with 1.5 mM DTT when analyzing the binding to HMGB1(red). ZZA4263 was injected at a concentration of 100 nM for 4 minutes over the HSA and the reference sensor chip surfaces at a constant flow rate of 30 μl/min. This was followed by 4 minutes' injection of 0, 8.3, 25, 75, 225 and 675 nM of HMGB1(red), HMGB1(disulfide), HMGB2 (Biorbyt, cat. no. orb180287), HMGB3 (Biorbyt, cat. no. orb180288), SP100 (Biorbyt, cat. no. orb169341), TNF (R&D Systems, cat. no. 210-TA), IL-6 (R&D Systems, cat. no. 206-IL) and IL-1β (R&D Systems, cat. no. 201-LB/CF), respectively. The proteins were allowed to dissociate for 20 minutes before the chip surfaces were regenerated by two 10 second pulses using 10 mM HCl. The reference surface and the buffer sample were subtracted from all curves. The buffer sample was subtracted to adjust for the dissociation of ZZA4263 from HSA. […]

HMGB2 = biological target: T2, HMGB2 (Homo sapiens, UniProt P26583); assay: SPR binding specificity study, HMGB2; conditions: analyte HMGB2; captured on HSA
T2 construct: purchased Biorbyt orb180287
T2 sequence (P26583 1-209): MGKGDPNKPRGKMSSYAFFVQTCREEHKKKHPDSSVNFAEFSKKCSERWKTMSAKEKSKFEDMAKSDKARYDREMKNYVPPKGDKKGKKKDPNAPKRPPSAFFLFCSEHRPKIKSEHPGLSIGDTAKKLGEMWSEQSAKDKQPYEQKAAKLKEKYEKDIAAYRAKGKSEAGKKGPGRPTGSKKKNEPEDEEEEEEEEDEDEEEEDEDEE
Protocol: as §1

[1] = biological target: T3, HMGB1-CXCL12 complex binding to CXCR4 (Rattus norvegicus, UniProt P63159); assay: cAMP Hunter eXpress CXCR4 CHO-K1 GPCR Assay; assay type: cell-based; conditions: ZZA4263 1000 nM-0.0006 nM; HMGB1 10 nM; CXCL12 0.4 nM; 30 min
T3 construct: purchased HMGBiotech HM001; host or cells: cAMP CHO-K1 CXCR4 eXpress cells (DiscoverX 95-0081E2)
T3 sequence (P63159 2-215): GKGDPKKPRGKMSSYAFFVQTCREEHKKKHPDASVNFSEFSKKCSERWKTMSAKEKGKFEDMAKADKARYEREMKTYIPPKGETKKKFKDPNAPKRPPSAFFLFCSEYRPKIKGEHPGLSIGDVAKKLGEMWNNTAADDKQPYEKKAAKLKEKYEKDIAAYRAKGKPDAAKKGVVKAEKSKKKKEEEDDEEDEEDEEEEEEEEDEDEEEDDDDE
Protocol: cAMP Hunter eXpress CXCR4 CHO-K1 GPCR Assay kit with reagents was obtained from DiscoverX (cat no 95-0081E2CP2L). cAMP CHO-K1 CXCR4 eXpress cells (DiscoverX, cat no: 95-0081E2) were thawed and seeded into a white 96-well plate, with clear bottom, in 100 μl AssayComplete Cell Plate 2 Reagent. The cells were cultured overnight at 37° C., 5% CO2.
On the day of the experiment, dilution of HMGB1 (HMGBiotech, cat no: HM001), CXCL12 (DiscoverX, cat no: 92-1011) and ZZA4263 (SEQ ID NO: 48) was performed in a separate dilution plate. First, a serial dilution of HMGB1 (200 nM-0.3 nM) in Cell Assay Buffer with forskolin and tris(2-carboxyethyl)phosphine hydrochloride (TCEP; Sigma-Aldrich) was performed and incubated with CXCL12 at RT for 15 min. Second, a serial dilution of ZZA4263 (1000 nM-0.0006 nM) in PBS was performed and incubated with HMGB1 (10 nM) and CXCL12 (0.4 nM) in Cell Assay Buffer with forskolin and TCEP at RT for 15 min. Cell medium was removed from cells and 30 μl Cell Assay Buffer was added together with 15 μl HMGB1, CXCL12 and ZZA4263 dilutions. Cells were incubated at 37° C., 5% CO2 for 30 min. cAMP standard was serially diluted and added to the plate after the incubation. All Cell Assay Buffer was removed from the cells and 45 μl of fresh Cell Assay Buffer was added to each well. […] The luminescence was measured in a 96-well plate reader (Enspire).

B1: ZZA4263: heterodimer ZH27/ZH32, format Z(boxB)-L2-Z(boxA)-ABD (protein)
chain: AEAKYAKEAWLAEQEIWQLPNLTEAQFQAFILKLIDDPSQSSELLSEAKKLNDSQAPKGAPGGGGSTSAEAKYAKEDWDAFWEIIWLPNLTDAQQRAFIYKLEDDPSQSSELLSEAKKLNDSQAPKASGSLAEAKEAANAELDSYGVSDFYKRLIDKAKTVEGVEALKDAILAALP
modifications: Engineered HMGB1 binding polypeptide
notes: heterodimer ZH27/ZH32, format Z(boxB)-L2-Z(boxA)-ABD
- ka (HMGB1(red)): 1.3e+06 M⁻¹ s⁻¹
- kd (HMGB1(red)): 0.00015 s⁻¹
- ka (HMGB2): 180000 M⁻¹ s⁻¹
- kd (HMGB2): 0.00036 s⁻¹
- inhibition of binding of the HMGB1-CXCL12 complex to CXCR4 (return of luminescent signal) [1]: inhibit the binding of the HMGB1-CXCL12 complex to CXCR4 in a dose dependent manner

— patent US20220389066A1, “POLYPEPTIDES” (Affibody AB, priority 2019, published 2022)
